According to the supplement of paper PMC3334620:
Over roughly 33,000 sequences, “E-score (-0.5 to 0.5)” has its median near -0.054; the highest 2% begin near 0.35. The list shows a part of the results.

target: T1, Stb5 (UniProt P38699); test: PBM E-score (8-mer binding enrichment) (E-score (-0.5 to 0.5)); higher = stronger / more preferred TF binding; most listed sequences are background and not binding sites; settings: protein concentration: 200 nM; construct: GST-full length
T1 sequence: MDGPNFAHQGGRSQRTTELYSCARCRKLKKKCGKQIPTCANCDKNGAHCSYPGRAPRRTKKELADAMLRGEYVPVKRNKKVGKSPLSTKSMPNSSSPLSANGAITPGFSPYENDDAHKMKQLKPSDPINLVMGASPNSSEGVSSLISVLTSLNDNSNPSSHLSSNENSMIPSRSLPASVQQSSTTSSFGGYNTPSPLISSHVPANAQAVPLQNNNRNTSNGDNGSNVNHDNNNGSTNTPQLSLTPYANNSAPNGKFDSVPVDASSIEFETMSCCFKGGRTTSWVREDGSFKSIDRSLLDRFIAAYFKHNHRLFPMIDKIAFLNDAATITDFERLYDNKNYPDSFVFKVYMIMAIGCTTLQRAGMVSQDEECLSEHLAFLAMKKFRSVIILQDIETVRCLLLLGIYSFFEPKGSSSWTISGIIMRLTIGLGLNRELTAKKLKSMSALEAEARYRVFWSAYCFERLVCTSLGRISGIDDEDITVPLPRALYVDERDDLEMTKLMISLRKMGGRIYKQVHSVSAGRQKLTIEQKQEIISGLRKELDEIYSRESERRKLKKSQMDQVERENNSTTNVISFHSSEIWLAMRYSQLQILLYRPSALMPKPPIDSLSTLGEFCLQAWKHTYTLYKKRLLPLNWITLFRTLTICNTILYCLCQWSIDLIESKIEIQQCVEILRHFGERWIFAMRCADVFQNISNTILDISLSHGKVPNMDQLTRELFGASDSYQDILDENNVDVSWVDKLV
Method in brief: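 For each ungapped eight-base word taken together with its reverse complement, the Universal PBM Analysis Suite assigned an E-score. Binding data came from GST-tagged yeast transcription factors, applied at about 100-200 nM, on universal all-10-mer Agilent arrays made double-stranded by primer extension. Fluorescent anti-GST marked bound protein, and scans were normalised with masliner.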

| Sequence | PBM E-score |
| --- | --- |
| TGACCCCA | -0.112 |
| CAGTCTAA | 0.00323 |
| TCGGTAGA | 0.108 |
| AAAATCTT | -0.12 |
| AGAGGGAG | -0.367 |
| CTTAGACC | 0.0337 |
| ACCGGCAC | 0.373 |
| ACAGTGAG | -0.383 |
| CCTTCCAC | -0.101 |
| CTTAGCTC | 0.144 |
| GGGCATTA | 0.176 |
| AATTACCT | -0.152 |
| GCTCACTA | -0.229 |
| CCTCATGA | -0.054 |
| TCACATCA | -0.231 |
| ACCTAGTC | -0.134 |
| AGGGCTAT | -0.228 |
| ATCCGTTG | 0.158 |
| TACACGAA | 0.105 |
| GACCACCC | -0.203 |
| ATGGATGA | -0.187 |
| CAAGAGGG | -0.306 |
| AGGAGTTA | 0.287 |
| TACGGGAA | 0.271 |
| CGGGAGAA | 0.0541 |

| Sequence | PBM E-score |
| --- | --- |
| ACCACCCG | 0.0381 |
| AACGTATG | -0.248 |
| ACTATGAC | -0.057 |
| ATTTGTCG | 0.0123 |
| ACGAACTG | -0.15 |
| AAATTACG | -0.165 |
| AGGGATGC | -0.264 |
| ACGTAAGT | -0.0909 |
| AAGCCTTG | -0.289 |
| ATACGATA | -0.11 |
| GCCTGGCC | -0.0528 |
| CCGGAGCC | 0.182 |
| ACCTTGAA | -0.276 |
| CCTATCCA | -0.0932 |
| GACTATGC | -0.199 |
| CATAAGGA | -0.0433 |
| AGTCATCC | -0.13 |
| CAGCCCGG | 0.246 |
| GCGCGTAC | 0.0419 |
| ACTCTTGG | -0.13 |
| CTCCGACA | 0.366 |
| AGGCTCTA | -0.0942 |
| CCCATCGG | 0.274 |
| ATCGCTCC | 0.154 |
| TCAAGAGA | -0.0963 |

| Sequence | PBM E-score |
| --- | --- |
| CCATCCAC | -0.185 |
| TCATATCA | -0.0158 |
| ATTATCAA | -0.174 |
| CCGCAACG | 0.265 |
| AACTGATC | -0.166 |
| ATAGGGTG | -0.292 |
| GTTGGATA | 0.0344 |
| CAATTTCG | -0.11 |
| ACTAATCA | 0.0538 |
| CTGCCGAA | 0.071 |
| AATGGAAG | -0.132 |
| ACTGGCGA | -0.284 |
| CACTACCC | -0.179 |
| ACGACATC | 0.074 |
| ACACCGAG | 0.369 |
| CCTGGAAG | -0.344 |
| CAGGATCG | -0.0453 |
| CCCGGAAA | 0.0585 |
| ACTAGCGC | 0.102 |
| AAAGAGAG | -0.234 |
| ATCCCAGA | -0.148 |
| CCACAGAG | -0.171 |
| CCAAAACA | -0.112 |
| TCTATGAA | -0.121 |
| GGCTGCAA | -0.0454 |

| Sequence | PBM E-score |
| --- | --- |
| ACCTGCCA | -0.0783 |
| TGCTTCAA | -0.0863 |
| ACATTCCA | -0.144 |
| ATGTAGCG | -0.0982 |
| AGGCAGTG | -0.242 |
| ACCTCTCG | -0.343 |
| ATAGAGGA | -0.239 |
| GAGATCCC | 0.167 |
| ACCGGCCA | 0.272 |
| AGGCCGCC | 0.324 |
| GAGATAAA | 0.0862 |
| ACCTCAGA | -0.125 |
| AATGGATC | 0.0237 |
| AGTCACAT | -0.165 |
| TGTGGTAA | -0.148 |
| CGTTAAGA | 0.104 |
| CTCACAAC | -0.191 |
| ATCCTCGA | -0.187 |
| TAATCGGA | 0.202 |
| AACCGGAC | 0.28 |
| ACGGAAAA | 0.0613 |
| CGCGAGAG | -0.0249 |
| ATGGTCAC | -0.122 |
| CAGCAGAA | -0.134 |
| GCGTCGAA | -0.00458 |

| Sequence | PBM E-score |
| --- | --- |
| CCTGCGAA | -0.104 |
| CCCATCCC | -0.162 |
| CTAACTAG | -0.12 |
| ATGGCAAA | -0.0403 |
| AACATGAG | -0.0791 |
| CTACACGA | -0.0898 |
| AAACATCC | 0.227 |
| CGCATGAA | -0.0542 |
| AGAAGAAC | 0.0159 |
| AATGTATC | -0.161 |
| AGGCACAT | -0.176 |
| CACACACA | -0.242 |
| CAATGTAA | -0.128 |
| CAAGTGAG | -0.135 |
| AATAGAGT | -0.221 |
| TAAAACGA | -0.233 |
| ACAACCAG | -0.0834 |
| ATGTACCC | 0.0379 |
| AGCAGGGA | -0.205 |
| AAAACCGA | 0.286 |
| TCATGACA | -0.0976 |
| GAACGACC | -0.0312 |
| CCTGAAGA | -0.0667 |
| ATTAATCA | -0.00286 |
| TCCCGTCA | 0.198 |

| Sequence | PBM E-score |
| --- | --- |
| AATCGAGG | -0.2 |
| AATGTCTG | -0.0972 |
| CGCGATGA | 0.052 |
| CTCCACAG | -0.313 |
| ATTGATCA | -0.28 |
| AGTGACCC | -0.144 |
| CCCAAACA | -0.329 |
| CGCGATTA | 0.105 |
| AATATCGC | 0.0838 |
| GCGTGTAC | 0.0732 |
| CCGTTGTA | 0.156 |
| CCACGCGC | 0.00935 |
| GAGTTTCA | -0.131 |
| GATTTCGC | 0.0818 |
| AGTACGTC | -0.125 |
| ATAGATCG | -0.047 |
| CACGCAGC | 0.0109 |
| AATACTTG | -0.0989 |
| CTCTAAAA | 0.0124 |
| CAAGTTAG | -0.0228 |
| GCAGCTAC | 0.0204 |
| TATATCAA | 0.0919 |
| CCCATGCG | -0.113 |
| AGGTCAGC | -0.149 |
| CGCCTAAA | 0.0151 |

| Sequence | PBM E-score |
| --- | --- |
| AAGATTTA | 0.0658 |
| AACAACCT | -0.214 |
| AGGGTATC | -0.0284 |
| AACACGTC | -0.16 |
| GCATCTCC | 0.0871 |
| GGTAGAAA | 0.119 |
| CGCCAACC | 0.163 |
| ACACTCTC | -0.0845 |
| AGCGAAAC | -0.0251 |
| CCGCCACA | 0.241 |
| CTTTTTCC | 0.115 |
| AGATATAT | 0.123 |
| AGAAGCCT | -0.0816 |
| CGGCCCGC | 0.188 |
| CGGTAGAG | 0.0365 |
| AGGCTGGC | -0.236 |
| AGGCCTTG | -0.183 |
| AAACAACG | 0.0695 |
| GAGGTCGA | -0.241 |
| GTGGATAA | -0.0153 |
| AAGATGGG | -0.0408 |
| CGTTCTAA | 0.128 |
